The results in this text go back to the RNAGym collection of RNA variant scans (doi:10.7554/elife.90254).

B1: OR4K15 (parent)
chain: GUUAACGGUCAUAGGCCAUGGAAACUAGGAGCACCAUUUCGCUGCCAGUGAAGAAAUGAACAAAGAAAAUCUGGGCCAGGCAGGCAUCAAAAGAAAUAGUCUUGCGCUCAACCAGAAAGUCUGUAAUCAUUUUAAGGGUA

The source gives no read counts; variants with many changes may rest on few reads.

In this series the parent is B1. Put plainly: self-cleavage, relative activity (ratio to wild type); higher = more cleavage; in vitro, sequencing; the parent is a self-cleaving ribozyme.
GUUAACGGCCAUAGGCCACGGAAGCUAGGAGCACCAUUUCGCUGCCAGUGAAGAAAUGAACAAGGAAAAUCUGGGCCAGGCAGUCAUCAAAAGAAAUAGUCUUGCGCUCAACCAGAAAGUCUGUAAUCAUUUUAAGGGUA [U9C U19C A24G A64G G84U]: the self-cleavage amounted to 0.8.

With GUUAACGGCCAUAGGCCAUGGAAACUAGGAGCACAAUUUCGCUGCCAGCGAAGAAAUGAACAAAGAAAAUCUGGGCCAGGCAGGCAUCAAAAGAAAUAGUCUUGCGCUCAACCAGAAAGUCUGUAAUCAUUUUAAGGGUA [U9C C35A U49C], the self-cleavage turned out to be 0.91.

In the case of GUUAACGGCCAUAGGCCAUGGAAACUAGGAGCACCACUUCGCUGCCAGUGAAGAAAUGAACAAGGAAAAUCUGGGCCAGGCAGGCAUCAAAAGAAAUAGUCUCGCGCUCAACCAGAAAGUCUGUAAUCAUUCUAAGGGUA [U9C U37C A64G U103C U132C], the self-cleavage came to 1.12.

With GUUAACGGCCAUAGGCCAUGGAAACUAGGAGCACCAUUUCGCUGCCAGUGAAGAAAUGAACAAAGAAAAUCUGGGCCAGGCAGGCAUCAAAAGAAAUAGUCUUGCGCUAAACCAGGAAGUCCGUAAUCAUUUUAAGGGUG [U9C C109A A116G U122C A140G], the self-cleavage was determined as 0.14.

Turning to GUUAACGGCCAUAGGCCAUGGAAACUAGGAGCACCAUUUCGCUGCCAGUGAAGAAAUGAACAAAGAAAAUCUGGGCCAGGCAGGCAUCAAAAGAAAUAGUCUUGCACUCAACCAGAAAGUCCGUAAUCAUUUUAAGGGUA [U9C G106A U122C], the self-cleavage came to 0.01.

GUUAACGGCCAUAGGCCAUGGAAACUAGUAGCACCAUUUCGCUGCCAGUGAAGAAAUGAACAAAGAAAAUCUGGGCCAGGCAGGCAUCAAAAGAAAUAGUCUUGCGCUCAACCAGAAAGUCUGUAUUCAUUUUAAGGGUA [U9C G29U A126U]: the self-cleavage came to 1.35.

GUUAACGGCCAUAGGCCAUGGAAACUAGGAGCACCAUUUCGGUGCCAGUGAAGGAAUGAACAAAGAAAGUCUGGGCCAGGCAGGCAUCAAAAGAAAUAGUCUUGCGCUCAACCAGAAAGUCUGUAAUCAUUUUAAGGGUA [U9C C42G A54G A69G]: the self-cleavage is 1.04.

For GUUAACGGCCACAGGCCAUGGGAACUAGGAGCACCAUUUCGCUGCCAGUGAAGAGAUGAACAAAGAAAAUCUGGGCCAGGCAGGCAUCAAAAGAAACAGUCUUGCGCUCAACCAGAGAGUCUGUAAUCCUUUUAAGGGUA [U9C U12C A22G A55G U97C A117G A129C], the self-cleavage came out at 1.58.

Turning to GUUAACGGCCAUAGGCCAUGGAAACUAGGAGCACCAUUUCGCUGACAGUGGAGAAAUGAACAAAGAAAAUCUGGGCCAGGCAGGCAUCAAAAGAAAUAGUCUUGCGCUCAACCAGAAAGUCUGUAAUCAUUUUAAGGGUA [U9C C45A A51G], the self-cleavage turned out to be 0.89.

Take GUUAACGGCCAUAGGCCAUGGAAACUAGGAGCACCAUUUCGCUGCCAGUGAAGAAAUGAACAAAGAAAAUCUGGGCCAGGCAGGUAUCGAAAGAAAUAGUCUUGCGCUCAACCAGAAAGUCUGUAAUCAUUUUAAGGGUA [U9C C85U A89G]: the self-cleavage worked out at 1.13.

Turning to GUUAACGGCCACAGGCCAUGGAAACUAGGAGCACCAUUUCGCAGCCAGUGAAGAAAUGAACAAAGAAAAUCUGGGCCAGGCAGGUAUCGAAAGAAAUAGUCUUGCGCUCAACCAGAAAGUCUGUAAUCAUUUUAAGGGUA [U9C U12C U43A C85U A89G], the self-cleavage is 1.56.

For the variant GUUAACGGCCAUAGGCCACGGAAACUAGGAGCACCAUUUCGCUGCCAGUGAAGAAAUGAACAAAGAAAAUCUGGGCCAGGCAGGCAUCAAAAGAAUUAGUCUUGCGCUCAACCAGAAAGUCUGUAAUCAUUUUAAGGGUA [U9C U19C A96U], the self-cleavage worked out at 0.98.

Take GUUAACGGCCAUAGGCCAUGGAAACUAGGAGCACCAUUUCGCUGCUAGUGAAGAGAUGAACAAAGAGAAUCUGGGCCAGGCAGGCAUCAAAAGAAAUAGUCUUGCGCCCAACCAGAAAGUCUGUAAUCAUUUUAAGGGUA [U9C C46U A55G A67G U108C]: the self-cleavage turned out to be 0.06.

Regarding GUUAACGGCCACAGGCCAUGGAAACUAGGAGCACCAUUUCGCUGCCAGUGAAGAAAUGAGCAAAGAAAAUCUGGGCCAGGCAGGCAUCAAAAGAAAUAGUCUUGCGCUCAACCAGAAAGUCUGUAAUCAUUUUAAGGGUA [U9C U12C A60G], the self-cleavage was found to be 2.1.

GUUAACGGCCAUAGGCCAUGGAAAUUAGGAGCACCAUUUCGCUGCCAGUGAGGAAAUGAACAAAGAAAAUCUGGGCCAGGCAGGCAUCAAAAGAAAUAGUCUUGCGCUCAACCAGAAAGUCUGUAAUCAUUUUAAGGGUA [U9C C25U A52G]: the self-cleavage was 1.3.

As to GUUAACGGCCAUAGGCCACGGAAACUAGGAGCACCAUUUCGCUGCCAGUGGAGAAAUGAACAAAGAAAAUCUGGGCCAGGCAGGCAUCAAAGGAAAUAGUCUUGCGCUCGACCAGAAAGUCUGUAAUCAUUUUAAGGGUA [U9C U19C A51G A92G A110G], the self-cleavage came to 0.24.

Take GUUAACGGCCACAGGCCAUGGAGACUAGGAGCUCCAUUUCGCUGCCAGUGAAGAAAUGAACAUAUAAAAUCUGGGCCAAGCAGGCAUCAAAAGAAAUAGUCUUGCGCUCAACCAGAAAGUCUGUAAUCAUCUUAAGGGUA [U9C U12C A23G A33U A63U G65U G79A U131C]: the self-cleavage was found to be 0.29.

Turning to GUUAACGGCCAUAGGCCAUGGAAACUAGGAGCACCAAUUCGCUGCCAGUGAAGAAAUGAACAAAGAGAAUCUGGGCCAGGCAGGCAUCAAAAGAAAUAGUCUUGCGCUCAACCAGAUAGUCUGUAAUCAUUUUAAGGGUA [U9C U37A A67G A117U], the self-cleavage was found to be 1.35.

For GUUAACGGCCAUAAGCCAUGGAAACUAGGAGCACCAUUUCGCUGCCAGUGAAGAAAUGAACAAAGAAAAUCUGGGCCAGGCAGGCAUCAAAAGAAAUAGUCUUGCGCACAACCAGAAAGUCUGUAAUCAUUUUAAGGGUA [U9C G14A U108A], the self-cleavage is 0.03.

On to GUUAACGGCCAUAGGCCAUGGAAACUAGGAGCACCAUUUCGCUGCCAGUGAAGAAAUGAACAAAGAAAAUCUGGGCCAGGCAGGCAUUAAAAGAAAUAGUCUUGCGCUCUACCAGAAAGUCUGUAAUCAUUUUAAGGGUA [U9C C88U A110U], for which the self-cleavage stood at 2.43.

For the variant GUUAACGGCCAUAGGCCAUGGAAACUAGGAGCACCACUUCGCUGCCAGUGAAGAAAUGAACAAAGAAAAUCUGGGCCAGGCGGGCAUCAAAAGAAAUAGUCUUGCGUUCAACCAGAAAGUCUGUAAUCAUUUUAAGGGUA [U9C U37C A82G C107U], the self-cleavage was 0.07.
